Assay results as given in article PMC6061476, “Characterization of the caprolactam degradation pathway in Pseudomonas jessenii using mass spectrometry-based proteomics” (Applied Microbiology and Biotechnology, 2018).

How the values were obtained:
Assay type in all cases: biochemical
[1] = biological target: T1, PjAT (6-aminohexanoate aminotransferase, omega aminotransferase) (Pseudomonas jessenii, UniProt A0A2W0F5X5); assay: alanine dehydrogenase-coupled NADH assay, […] nm; details: reverse direction: 2 mM substrate, 5 mM L-alanine, 0.1 mM NADH, 0.05 mM PLP, pH 8; activity sentence prints 5-oxohexanoate
T1 construct: gene CRX42_01150; full length, C-terminal His6-tag kept, pET20b+ (pET-PjAT), E. coli C41(DE3), Ni-NTA purified; ORF size 1367 bp; PLP enzyme
T1 sequence (A0A2W0F5X5 1-455): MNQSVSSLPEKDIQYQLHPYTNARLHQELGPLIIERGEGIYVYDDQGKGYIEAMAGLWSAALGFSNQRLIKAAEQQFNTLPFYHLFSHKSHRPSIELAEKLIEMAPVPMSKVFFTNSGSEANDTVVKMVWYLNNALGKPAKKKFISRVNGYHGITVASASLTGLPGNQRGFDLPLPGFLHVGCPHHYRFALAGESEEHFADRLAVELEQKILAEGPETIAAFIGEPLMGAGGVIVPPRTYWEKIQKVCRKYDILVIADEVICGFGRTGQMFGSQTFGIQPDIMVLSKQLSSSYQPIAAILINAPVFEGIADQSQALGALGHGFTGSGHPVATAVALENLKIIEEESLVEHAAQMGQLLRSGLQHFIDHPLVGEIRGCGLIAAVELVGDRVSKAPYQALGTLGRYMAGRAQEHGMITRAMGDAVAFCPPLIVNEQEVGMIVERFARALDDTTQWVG

[2] = biological target: T2, caprolactamase (CapA, CapB; α and β subunits) (Pseudomonas jessenii, UniProt A0A2W0EVE0+A0A2W0FH34); assay: UPLC-MS of 6-ACA formation; ATP dependence; details: co-substrate caprolactam, MgCl2, pH 8.5
Sequence of UniProt A0A2W0EVE0 (A0A2W0EVE0 whole entry, looked up): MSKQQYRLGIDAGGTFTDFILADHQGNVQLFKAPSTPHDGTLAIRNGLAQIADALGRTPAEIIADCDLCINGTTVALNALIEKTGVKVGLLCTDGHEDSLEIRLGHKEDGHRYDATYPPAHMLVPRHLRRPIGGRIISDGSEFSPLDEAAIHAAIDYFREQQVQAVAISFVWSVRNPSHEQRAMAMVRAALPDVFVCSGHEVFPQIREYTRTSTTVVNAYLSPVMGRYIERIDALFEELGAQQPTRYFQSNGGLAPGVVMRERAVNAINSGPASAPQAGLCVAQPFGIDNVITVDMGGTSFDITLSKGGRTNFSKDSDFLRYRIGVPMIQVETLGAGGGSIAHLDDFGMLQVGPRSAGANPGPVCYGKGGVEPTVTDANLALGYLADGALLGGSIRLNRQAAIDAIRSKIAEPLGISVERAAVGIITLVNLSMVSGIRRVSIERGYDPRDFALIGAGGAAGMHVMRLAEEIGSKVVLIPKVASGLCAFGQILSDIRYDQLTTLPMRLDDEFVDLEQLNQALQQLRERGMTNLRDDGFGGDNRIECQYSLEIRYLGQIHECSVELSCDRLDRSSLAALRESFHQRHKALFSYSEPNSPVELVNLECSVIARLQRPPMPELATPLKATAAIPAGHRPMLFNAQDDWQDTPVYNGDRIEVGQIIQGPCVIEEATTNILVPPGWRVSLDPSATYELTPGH
Sequence of UniProt A0A2W0EVE0 (A0A2W0FH34 whole entry, looked up, further chain): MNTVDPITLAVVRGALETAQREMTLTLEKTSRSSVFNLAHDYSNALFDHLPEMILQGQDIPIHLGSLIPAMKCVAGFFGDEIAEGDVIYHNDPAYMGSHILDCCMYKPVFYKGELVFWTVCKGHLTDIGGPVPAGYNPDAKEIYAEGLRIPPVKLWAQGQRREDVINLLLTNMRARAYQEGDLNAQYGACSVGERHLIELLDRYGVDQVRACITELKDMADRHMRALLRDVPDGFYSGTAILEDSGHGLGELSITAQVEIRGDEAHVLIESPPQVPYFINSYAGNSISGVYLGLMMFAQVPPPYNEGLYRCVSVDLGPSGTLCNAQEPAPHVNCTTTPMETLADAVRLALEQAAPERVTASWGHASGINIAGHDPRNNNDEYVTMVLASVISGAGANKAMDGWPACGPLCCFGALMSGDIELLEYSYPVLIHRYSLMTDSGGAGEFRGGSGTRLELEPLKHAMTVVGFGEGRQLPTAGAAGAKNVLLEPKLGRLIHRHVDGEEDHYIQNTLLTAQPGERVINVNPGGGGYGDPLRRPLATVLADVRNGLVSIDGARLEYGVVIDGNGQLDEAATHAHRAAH

[3] = biological target: T2, caprolactamase (CapA, CapB; α and β subunits); assay: UPLC-MS of 6-ACA formation and caprolactam loss; details: 2 mM caprolactam, 5 mM ATP, 10 mM MgCl2, 50 mM ammonium bicarbonate, pH 8.5; E. coli cell-free extract

O=CCCCCC(=O)O [6-oxohexanoate]
alanine dehydrogenase-coupled NADH assay, 340 nm [1]: in both directions, so with 6-oxohexanoate or with 6-ACA as substrate

Nc1ncnc2c1ncn2[C@@H]1O[C@H](COP(=O)(O)OP(=O)(O)OP(=O)(O)O)[C@@H](O)[C@H]1O [ATP]
UPLC-MS of 6-ACA formation; ATP dependence [2]: We demonstrated the ATP dependence of the caprolactamase activity using enzyme expressed in E. coli

O=C1CCCCCN1 [caprolactam]
UPLC-MS of 6-ACA formation and caprolactam loss [3]: Time course analyses demonstrated that 6-ACA levels increased and caprolactam levels decreased in time
